Test results reported in PubChem BioAssay AID924 (National Center for Advancing Translational Sciences (NCATS), 2007).
Out of some 130,000 compounds screened, about 1,200 (0.92%) were called active. The inconclusive results got no clear call from the source; some entries with a clear call stand among them for comparison. Calls follow the shape of the dose curve; as a rule, active = well fitted cell-killing curve with a large enough effect; inconclusive = small, poorly fitted or top-dose-only effect; inactive = no such curve, though single readings can be large or run the other way. Where the call is inconclusive, the potency comes from a doubtful curve fit.

test: qHTS Screen for Compounds that Selectively Target Cancer Cells with p53 Mutations: Cytotoxicity of p53ts Cells at the Permissive Temperature; details: H1299-p53A138V at 32C, ATP luminescence viability, 24 h; series mostly up to 46.1 µM; also: nearly all actives have a fitted effect of over 55% in size
Method in brief: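 H1299-p53 A138V cells (temperature-sensitive p53) exposed 24 h to up to 46 uM compound at 32C, where p53 is wild-type in conformation. Viability read as ATP luminescence and normalised to DMSO and 100 uM tamoxifen. AC50 fitted with the Hill equation.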
Potency is read from the fitted curve at half-maximal effect; tags tell the direction and shape of the fitted curve.

Compound | Potency
CCOC(=O)c1ccc(NC(=O)c2nsc3ccccc23)cc1 | inconclusive: 10 µM [cytotoxic, partial curve]
COc1ccccc1NC(=O)c1ccccc1-c1nc(-c2ccccc2OC)no1 | inconclusive: 31.6 µM [cytotoxic, single point]
Cc1ccc(-c2cnc(NCc3c(F)cccc3Cl)n2C)cc1 | inconclusive: 31.6 µM [cytotoxic, single point]
Cc1ccc(NC(=O)Cn2ncc3c4ccccc4n(Cc4ccccc4)c3c2=O)cc1Cl | inactive
COc1ccccc1-c1cc(C(F)(F)F)nc(S(=O)(=O)CCCC(=O)NC(C)C)n1 | inconclusive: 31.6 µM [cytotoxic, single point]
COc1ccc(-c2cc(C(=O)N/N=C/c3ccc(O)cc3)[nH]n2)cc1 | inconclusive: 10 µM [cytotoxic, partial curve]
C=CC(C1=CC(=O)C(OC)=CC1=O)c1ccccc1 (configuration not stated) | active: 12.6 µM
CCN(CC(=O)Nc1c(C(=O)OC)[nH]c2ccccc12)c1ccc2c(c1)OCO2 | inconclusive: 20 µM [cytotoxic, single point]
Cc1cc2nc(-c3cccc(NC(=O)COc4ccc(C(C)C)cc4)c3)oc2cc1C | inconclusive: 2 µM [cytotoxic, full curve]
CC(C)(C)c1ccc(S(=O)(=O)/C=C\C#N)cc1 | active: 15.8 µM
O=C(NCc1cccs1)c1cc2c(s1)CCCC2 | inconclusive: 15.8 µM [cytotoxic, partial curve]
Cc1ccc(CSc2nc3ccncc3n2Cc2nc(-c3ccc(Cl)cc3)oc2C)cc1 | inconclusive: 20 µM [cytotoxic, single point]
COC(=O)c1cc(=O)c(O)c2c(O)c(O)ccc2c1 | inactive
Cc1ccc(-c2nc3sc(CCNC(=O)c4ccco4)c(C)n3n2)cc1 | inconclusive: 10 µM [cytotoxic, partial curve, poor fit]
COc1cccc(-c2nc(Nc3ccncc3)c3ccccc3n2)c1 | inconclusive: 31.6 µM [cytotoxic, single point]
O=C(CCCc1nc(-c2ccc(Cl)cc2)no1)N1CCOCC1 | inconclusive: 5.01 µM [cytotoxic, partial curve]
COc1ccc(C(=O)CSc2nnc(NC(=O)C3CC(=O)N(c4ccccc4)C3)s2)cc1 (configuration not stated) | inactive
O=C(Nc1ccc(-c2nc3ccccc3o2)c(O)c1)c1cc(-n2cnnc2)ccc1Cl | inconclusive: 25.1 µM [cytotoxic, single point]
O=C(CCS(=O)(=O)c1nc(-c2cccs2)cc(C(F)(F)F)n1)Nc1cc(Br)ccc1O | inconclusive: 31.6 µM [cytotoxic, single point]
CCOC(=O)N1CCN(c2cc(NCCC(=O)O)c3c4c(onc24)-c2ccccc2C3=O)CC1 | inconclusive: 15.8 µM [cytotoxic, single point]
Cc1ccsc1C(=O)OCC(=O)c1cc(C)n(CC2CCCO2)c1C (configuration not stated) | active: 5.01 µM
O=C1c2ccccc2C(Nc2ccc3c(c2)OCCO3)N1Cc1ccco1 (configuration not stated) | inconclusive: 31.6 µM [cytotoxic, single point]
COc1ccccc1NC(=O)CSc1nnc(NC(=O)NC2CCCCC2)s1 | inconclusive: 3.55 µM [cytotoxic, full curve, poor fit]

Compound | Potency
COc1ccc(C(=O)N2CCC(c3nc4ccccc4s3)CC2)cc1Cl | inconclusive: 35.5 µM [cytotoxic, single point]
CC(=O)[C@H](CC(C)C)NC(=O)[C@@H](CC(C)C)NC(=O)[C@H](CC(C)C)NC(=O)OCc1ccccc1 | inconclusive: 20 µM [cytotoxic, partial curve]
O=C(Nc1ccccc1C(F)(F)F)c1cc(-c2ccc3c(c2)OCCO3)on1 | inconclusive: 10 µM [cytotoxic, partial curve]
O=C1CN(CC(=O)N2CCOCC2)c2ccccc2O1 | inconclusive: 20 µM [cytotoxic, partial curve]
COc1ccc(-c2cc(C(=O)N/N=C/c3ccc(OC)c(OC)c3)[nH]n2)cc1 | inactive
CCOC(=O)c1ccc(NC(=O)c2cccc(S(=O)(=O)N3CCOCC3)c2)cc1 | inconclusive: 25.1 µM [cytotoxic, single point]
O=C(Nc1nnc(C2CCCCC2)s1)c1ccco1 | inconclusive: 15.8 µM [cytotoxic, single point]
CCOc1ccc(N(C)S(=O)(=O)c2c(C(=O)N3CCC(C)CC3)c(C)n(C)c2C)cc1 | inactive
Cc1ccc(C)c(NC(CC(=O)c2ccccc2)C(=O)OCC(=O)c2cccs2)c1 (configuration not stated) | inconclusive: 0.0112 µM [cytotoxic, full curve, poor fit]
CCOC(=O)CN1C(C(=O)c2ccccc2)=C(OC(=O)C(C)(C)C)c2ccccc2S1(=O)=O | inconclusive: 12.6 µM [cytotoxic, partial curve]
N=C(N)c1ccc(N2CCN(C3CCN(CC(=O)O)CC3)CC2)cc1 | inactive
Cc1oc(-c2cccc(Cl)c2)nc1CN1CCCC(C(=O)NCCc2ccc(Cl)cc2)C1 (configuration not stated) | inconclusive: 25.1 µM [cytotoxic, single point]
C[C@](N)(COP(=O)(O)O)C(=O)O | inactive
Cc1ccc(S(=O)(=O)n2nc(-c3ccco3)nc2SCc2ccccc2)cc1 | inconclusive: 20 µM [cytotoxic, partial curve]
CCc1ccc(NC(=O)c2cc3sc(Cl)cc3n2C)cc1 | inconclusive: 22.4 µM [cytotoxic, single point]
Cc1cccc(N2CCN(C(=O)C3CCN(S(=O)(=O)c4cccs4)CC3)CC2)c1C | inactive
Oc1ccc(-c2nnc(-c3ccc(O)cc3)nn2)cc1 | inconclusive: 10 µM [cytotoxic, partial curve]
COCCn1c(=O)c(-c2ccc(Cl)cc2)nc2cncnc21 | inactive
O=c1c(-c2cc(F)cc(F)c2)nc2cnc(N3CCNCC3)nc2n1Cc1cccs1 | inconclusive: 25.1 µM [cytotoxic, single point]
Cc1cccc(OCc2nc(-c3nonc3N)no2)c1C | inconclusive: 0.126 µM [cytotoxic, full curve, poor fit]
Clc1ccc(OCc2nc(-c3ccncc3)no2)c(Cl)c1 | inconclusive: 20 µM [cytotoxic, single point]
CCN(CC)CCOC(=O)c1ccc(NC(=O)COc2cc(=O)n(CC)c3ccccc23)cc1 | inactive
CCc1ccccc1NC(=O)c1sc(-n2nc(C)c(Cc3ccc4c(c3)OCO4)c2C)nc1C | inactive

Compound | Potency
COc1ccc(-n2ncc3c(N4CCCCC4)ncnc32)cc1 | active: 2.51 µM
CCC(C)Sc1c(C(C)C)cnc2c1c(=O)n(C)c(=O)n2C (configuration not stated) | inactive
Cc1ccccc1C(=O)Nc1ccc(C(=O)OCc2cc(=O)n3nc(C(C)C)sc3n2)cc1 | inconclusive: 2 µM [cytotoxic, full curve]
O=C(Nc1ccncc1)c1ccc2c(c1)OCCO2 | inconclusive: 31.6 µM [cytotoxic, single point]
COc1ccc(-c2nnc(-c3ccc(N)cc3)o2)cc1 | inconclusive: 12.6 µM [cytotoxic, partial curve]
COc1ccc(/C=C/C(=O)c2ccc(O)cc2O)cc1 | inconclusive: 31.6 µM [cytotoxic, single point]
COc1ccc(Nc2cc(C(=O)NCc3ccccc3)c3ccccc3n2)c(OC)c1 | inconclusive: 10 µM [cytotoxic, partial curve, poor fit]
Cc1cc(N2CCN(C(=O)c3ccco3)CC2)n2nc(-c3cccc(Cl)c3)cc2n1 | inconclusive: 12.6 µM [cytotoxic, single point]
Cc1ccc(C(=O)NC(c2ccccc2)C(Cl)Cl)cc1 (configuration not stated) | inconclusive: 35.5 µM [cytotoxic, single point]
c1ccc(N(c2ccccc2)c2nc(N3CCCC3)nc(-n3ccnc3)n2)cc1 | inconclusive: 31.6 µM [cytotoxic, partial curve]
COc1cc(O)ccc1-c1nc2ccc(Br)cn2c1Nc1ccccc1C | inconclusive: 31.6 µM [cytotoxic, single point]
Cn1nnc(NC(=O)c2ccc(C(C)(C)C)cc2)n1 | active: 10 µM
O=S(=O)(Nc1ccc(S(=O)(=O)N2CCCCC2)cc1)c1ccc(Br)s1 | inconclusive: 20 µM [cytotoxic, single point]
C1CCC(C(CC2CCCCN2)C2CCCCC2)CC1 (configuration not stated) | inconclusive: 31.6 µM [cytotoxic, single point]
COc1cccc(NC(=O)CSc2nnc3[nH]c(=O)cc(-c4ccccc4)n23)c1 | inconclusive: 1.41 µM [cytotoxic, full curve]
Cc1ccc2c(c1)cc(C(=O)NCc1ccc(F)cc1)n2C | inconclusive: 0.794 µM [cytotoxic, full curve, poor fit]
CCOCC(=O)Nc1ccc(-c2cn3c(C)csc3n2)cc1 | inconclusive: 11.2 µM [cytotoxic, partial curve]
Cc1nnc(N2CCC(C(=O)NCc3ccc(F)cc3)CC2)c2nn(-c3ccc(Cl)cc3)c(C)c12 | inconclusive: 31.6 µM [cytotoxic, single point]
CCc1ccc(C2=C(C)C(N3CCC(C(=O)Nc4ccc(F)cc4)CC3)=NS2(=O)=O)cc1 | inconclusive: 25.1 µM [cytotoxic, single point]
COCCn1c(C)cc(C(=O)CSc2nc3ccccc3o2)c1C | inactive
CCc1nc(N)nc(N)c1-c1ccc(Cl)cc1 | inconclusive: 12.6 µM [cytotoxic, single point]
